{
  "source": "patent US12186283B2",
  "about": "“Bismuth-thiol compositions and methods of use” (Microbion Corporation, priority 2018, dated 2025)",
  "test_system": "Pseudomonas aeruginosa biofilms (MR14, AG14)",
  "settings": "MR14, MDR CF-isolate of P. aeruginosa; at 25 ng/ml",
  "data": [
    {"compound": "CC(S)C(C)S.[Bi]", "note": "(stereo not shown) [BisBDT, bismuth-2,3-butanedithiol]", "values": [
      {"measurement": "reduction in biofilm cell viability", "result": 2, "unit": "logs"}
    ]}
  ]
}
